# In PubChem BioAssay (Tox21):
# Several values for one entry are separate records, joined by “and”; a condition that tells them apart may be missing. Equal entries are not always repeated. Inconclusive means that the source gave no clear call. Such entries were picked first, then a sample of the others. For some of these results: Potencies beside an inconclusive call are fits to weak or partial responses and may not hold up. Activity calls are given as the source filed them. Unless noted, calls come from the whole dose curve; as a rule, active = well fitted curve in the direction sought with a large enough effect in the repeat runs; inconclusive = weak or mixed curves; inactive = no such curve, though single readings can be large; an effect the other way counts as inactive or inconclusive.
# What was measured:
# [1] = qHTS assay to identify small molecule antagonists of the estrogen related receptor (ERR) signaling pathway from Tox21 library (AID 1224848); note: nearly all actives have a fitted effect of over 50% in size; note: potency is the fitted concentration of half-maximal effect
# Summary of the method: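 Screening used an ERR reporter line supplied by NTP, exposed for 18 h at 37 C to library compounds delivered in DMSO. Signal was luciferase luminescence developed with ONE-Glo at room temperature for 30 min.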
# [2] = qHTS RealTime-Glo MT Cell Viability Assay in HepG2 cells - 24 hour (AID 1224867); note: potency is the fitted concentration of half-maximal effect; nearly all actives have a fitted effect of over 50% in size
# Summary of the method: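 Cells + NanoLuc/prosubstrate dispensed (600 cells/well) → 5 h at 37 C/5% CO2 → compounds in DMSO transferred → 40 h incubation at 37 C, luminescence read at 0, 8, 16, 24, 32, 40 h.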
# [3] = qHTS RealTime-Glo MT Cell Viability Assay in HepG2 cells - 40 hour (AID 1224870); note: potency is the fitted concentration of half-maximal effect; nearly all actives have a fitted effect of over 50% in size
# Summary of the method: (§1)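 HepG2 cells mixed with RealTime-Glo MT reagents (NanoLuc plus cell-permeant prosubstrate) were seeded at 600 cells/well, incubated 5 h at 37 C/5% CO2, then pinned with compounds in DMSO; nonlytic luminescence tracked viability during 40 h treatment.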
# [4] = A CellTox Green Cytotoxicity Assay to monitor cytotoxicity in HEK293 cells - 40 hour (AID 1224871); note: nearly all actives have a fitted effect of over 45% in size; note: potency is the fitted concentration of half-maximal effect
# Summary of the method: (§2)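 Nonlytic real-time cytotoxicity: HEK293 + CellTox Green reagent plated, 5 h preincubation, pintool compound addition (23 nL in DMSO), 37 C for 40 h, fluorescence measured at successive time points.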
# [5] = qHTS RealTime-Glo MT Cell Viability Assay in HEK293 cells - 16 hour (AID 1224872); note: potency is the fitted concentration of half-maximal effect; nearly all actives have a fitted effect of over 50% in size
# Summary of the method: (§3)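 Tox21 10K qHTS, HEK293, 600 cells/well, RealTime-Glo reagent co-dispensed with cells; 5 h preincubation, compound by pintool, 37 C, luminescence at 0–40 h.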
# [6] = qHTS RealTime-Glo MT Cell Viability Assay in HepG2 cells - 8 hour (AID 1224873); note: potency is the fitted concentration of half-maximal effect; nearly all actives have a fitted effect of over 55% in size
# Summary of the method: as §1
# [7] = qHTS RealTime-Glo MT Cell Viability Assay in HEK293 cells - 40 hour (AID 1224874); conditions: RealTime-Glo luminescence; max response: active compounds read low
# Summary of the method: (§4)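 Cells were seeded together with NanoLuc luciferase and a prosubstrate that viable cells reduce to a luciferase substrate. After a 5 h incubation at 37 C/5% CO2, compounds were added and luminescence was measured repeatedly during 40 h of treatment.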
# [8] = A CellTox Green Cytotoxicity Assay to monitor cytotoxicity in HEK293 cells - 24 hour (AID 1224875); note: nearly all actives have a fitted effect of over 45% in size; note: potency is the fitted concentration of half-maximal effect
# Summary of the method: as §2
# [9] = qHTS RealTime-Glo MT Cell Viability Assay in HEK293 cells - 0 hour (AID 1224880); note: nearly all actives have a fitted effect of over 45% in size; note: potency is the fitted concentration of half-maximal effect
# Summary of the method: as §4
# [10] = qHTS RealTime-Glo MT Cell Viability Assay in HEK293 cells - 32 hour (AID 1224868); note: nearly all actives have a fitted effect of over 50% in size; note: potency is the fitted concentration of half-maximal effect
# Summary of the method: as §3
# [11] = A CellTox Green Cytotoxicity Assay to monitor cytotoxicity in HEK293 cells - 0 hour (AID 1224869); note: nearly all actives have a fitted effect of over 50% in size
# Summary of the method: as §2
# [12] = A CellTox Green Cytotoxicity Assay to monitor cytotoxicity in HepG2 cells - 40 hour (AID 1224879); note: nearly all actives have a fitted effect of over 40% in size; note: potency is the fitted concentration of half-maximal effect
# Summary of the method: (§5)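 Read-out is fluorescence of a cyanine dye excluded from live cells that stains DNA of dead HepG2 cells, with signal proportional to cytotoxicity. Plates were read at 0, 8, 16, 24, 32 and 40 h after compound addition.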
# [13] = qHTS assay to identify small molecule agonists of H2AX - cell viability counter screen (AID 1224847; calls by dose curve; note: nearly all actives have a fitted effect of over 30% in size; note: potency is the fitted concentration of half-maximal effect)
# Summary of the method: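 After overnight plating of 1000 CHO-K1 cells per well, a 15-concentration compound series was applied for 3 hr at 37C. Luminescence from CellTiter-Glo, read following 30 min at room temperature, reflected cell viability.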
# [14] = A CellTox Green Cytotoxicity Assay to monitor cytotoxicity in HepG2 cells - 16 hour (AID 1224876); note: nearly all actives have a fitted effect of over 45% in size; note: potency is the fitted concentration of half-maximal effect
# Summary of the method: as §5
# [15] = A CellTox Green Cytotoxicity Assay to monitor cytotoxicity in HepG2 cells - 24 hour (AID 1224878); note: nearly all actives have a fitted effect of over 45% in size; note: potency is the fitted concentration of half-maximal effect
# Summary of the method: as §5
# [16] = A CellTox Green Cytotoxicity Assay to monitor cytotoxicity in HEK293 cells - 32 hour (AID 1224881); note: nearly all actives have a fitted effect of over 40% in size; note: potency is the fitted concentration of half-maximal effect
# Summary of the method: as §2
# Tags give direction and shape of the fitted curve.
compound,measurement,setting,value
CN(C)CC/C=C1\c2ccccc2Sc2ccc(Cl)cc21,Potency,[1],"inconclusive: 33.5 µM [inhibitor, single point]"
same,Potency,[2],active: 23.9 µM
same,Potency,[3],active: 23.9 µM
same,Potency,[4],active: 23.9 µM
same,Potency,[5],"inconclusive: 26.8 µM [cytotoxic, single point]"
same,Potency,[6],"inconclusive: 23.9 µM [falling, partial curve]"
same,Potency,[7],active: 23.9 µM
same,Potency,[8],active: 26.8 µM
same,Potency,[9],"inconclusive: 19 µM [rising, partial curve]"
CN(C)/N=N/c1nc[nH]c1C(N)=O,Potency,[1],inconclusive: 33.5 µM [inhibitor]
CCCCCCCCSCCO,Potency,[1],inactive
same,Potency,[10],inactive
same,Potency,[11],inactive
same,Potency,[12],active: 43.6 µM
Cc1ccc(C(=O)O)cc1,Potency,[13],inactive
same,Potency,[14],"inconclusive: 63 µM [activator, single point]"
same,Potency,[15],"inconclusive: 56.2 µM [activator, single point]"
same,Potency,[12],"inconclusive: 56.2 µM [activator, single point]"
COc1cc2c(cc1OC)C(C(C(=O)N(CCc1ccc(OC)c(OC)c1OC)CCc1ccc(OC)c(OC)c1OC)c1ccccc1)=NCC2 (stereo not given),Potency,[1],active: 26.6 µM
same,Potency,[2],"inconclusive: 19 µM [falling, partial curve]"
same,Potency,[10],active: 3.38 µM
same,Potency,[3],"inconclusive: 23.9 µM [falling, partial curve, poor fit]"
same,Potency,[4],inactive
same,Potency,[5],active: 3.01 µM
same,Potency,[6],"inconclusive: 10.7 µM [falling, partial curve]"
same,Potency,[9],"inconclusive: 6.01 µM [falling, full curve]"
CN(C)C(=O)Oc1cccc([N+](C)(C)C)c1,Potency,[13],inactive
same,Potency,[12],inactive
CC(C)COC(=O)COc1cc(Cl)c(Cl)cc1Cl,Potency,[1],inactive
Cc1ncc(CSSCc2cnc(C)c(O)c2CO)c(CO)c1O,Potency,[13],inactive
same,Potency,[15],inactive
COC(C)=O,Potency,[13],inactive
same,Potency,[16],inactive
CC/C=C\CCOC(=O)c1ccccc1O,Potency,[13],"inconclusive: 2.01 µM [cytotoxic, full curve, poor fit]"
same,Potency,[14],"inconclusive: 21.9 µM [activator, single point]"
same,Potency,[15],"inconclusive: 21.9 µM [activator, single point]"
C1OCOCO1,Potency,[1],inactive
O=C(O)CCCc1c[nH]c2ccccc12,Potency,[13],"inconclusive: 1.79 µM [cytotoxic, single point]"
same,Potency,[14],inactive
same,Potency,[15],active: 17.4 µM
same,Potency,[12],"inconclusive: 15.5 µM [activator, partial curve, poor fit]"
CC1CCc2nccnc21 (stereo not given),Potency,[13],inactive
same,Potency,[14],"inconclusive: 24.5 µM [activator, single point]"
same,Potency,[15],"inconclusive: 21.9 µM [activator, single point]"
same,Potency,[12],"inconclusive: 21.9 µM [activator, single point]"
O=C(O)CCC(=O)OC[C@@H](NC(=O)C(Cl)Cl)[C@H](O)c1ccc([N+](=O)[O-])cc1,Potency,[13],inactive
same,Potency,[8],"inconclusive: 21.3 µM [activator, single point]"
same,Potency,[16],"inconclusive: 23.9 µM [activator, single point]"
Cc1c(N)cccc1C(F)(F)F,Potency,[1],inactive
Sc1nc(S)nc(S)n1,Potency,[1],"inconclusive: 37.4 µM [inhibitor, single point]"
CCOC(=O)Nc1ccc(NCc2ccc(F)cc2)nc1N,Potency,[1],"inconclusive: 26.6 µM [inhibitor, partial curve]"
COC(C)OC,Potency,[13],inactive
same,Potency,[16],inactive
Clc1ccc(Cl)c(Cl)c1Cl,Potency,[13],inactive
same,Potency,[16],inactive
CCCCCSCCCCC,Potency,[1],inactive
O=S(=O)(O)c1ccc(Cl)cc1,Potency,[13],"inconclusive: 1.57 µM [cytotoxic, single point]"
same,Potency,[9],inactive
c1ccc(SSc2ccccc2)cc1,Potency,[13],inactive
same,Potency,[9],"inconclusive: 19.6 µM [falling, partial curve]"
C/C=C(\C)C(C)=O,Potency,[13],inactive
same,Potency,[8],inactive
same,Potency,[9],"inconclusive: 54.9 µM [falling, partial curve, poor fit]"
same,Potency,[16],inactive
CC(=O)NNC(C)=O,Potency,[1],inactive
SCCc1cnccn1,Potency,[1],"inconclusive: 54.5 µM [inhibitor, partial curve, poor fit]"
COc1ccc(Cl)cc1C(=O)NCCc1ccc(S(=O)(=O)NC(=O)NC2CCCCC2)cc1,Potency,[13],"inconclusive: 127 µM [rising, partial curve, poor fit]"
same,Potency,[9],"inconclusive: 54.9 µM [falling, single point] and inconclusive: 26.8 µM [falling, single point]"
CCCCC1(COC(=O)CCC(=O)O)C(=O)N(c2ccccc2)N(c2ccccc2)C1=O,Potency,[13],inactive
same,Potency,[9],"inconclusive: 54.9 µM [rising, single point]"
